Measurements published in PMC4552016, “The Rsb Phosphoregulatory Network Controls Availability of the Primary Sigma Factor in Chlamydia trachomatis and Influences the Kinetics of Growth and Development” (PLoS Pathogens, 2015).
No constants are given. Whether binding was seen depends on the method and setting. Some binding calls cover weakened binding; strength is not graded here. For some of these results: Sequences can lack the tags named with a protein.

Key:
[1] = target: T1, σ^28 (C. trachomatis alternative sigma factor), BACTH fusion (Chlamydia trachomatis) (UniProt O84064); test: two-hybrid; bacterial adenylate cyclase two-hybrid (BACTH, EuroMedex) in DHM1 E. coli; cAMP-dependent lacZ reporter read by Miller assay; σ66 with RsbWCt in both cloning permutations
T1 sequence: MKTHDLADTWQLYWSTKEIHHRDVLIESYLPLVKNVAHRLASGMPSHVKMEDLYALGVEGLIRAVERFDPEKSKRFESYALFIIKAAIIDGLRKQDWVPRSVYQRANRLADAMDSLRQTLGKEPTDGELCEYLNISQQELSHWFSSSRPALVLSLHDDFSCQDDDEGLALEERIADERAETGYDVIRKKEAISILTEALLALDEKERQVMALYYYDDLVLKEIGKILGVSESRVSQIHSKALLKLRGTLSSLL

[2] = target: T2, σ^54 (C. trachomatis alternative sigma factor), BACTH fusion (Chlamydia trachomatis) (UniProt O84615); test: as above
T2 sequence: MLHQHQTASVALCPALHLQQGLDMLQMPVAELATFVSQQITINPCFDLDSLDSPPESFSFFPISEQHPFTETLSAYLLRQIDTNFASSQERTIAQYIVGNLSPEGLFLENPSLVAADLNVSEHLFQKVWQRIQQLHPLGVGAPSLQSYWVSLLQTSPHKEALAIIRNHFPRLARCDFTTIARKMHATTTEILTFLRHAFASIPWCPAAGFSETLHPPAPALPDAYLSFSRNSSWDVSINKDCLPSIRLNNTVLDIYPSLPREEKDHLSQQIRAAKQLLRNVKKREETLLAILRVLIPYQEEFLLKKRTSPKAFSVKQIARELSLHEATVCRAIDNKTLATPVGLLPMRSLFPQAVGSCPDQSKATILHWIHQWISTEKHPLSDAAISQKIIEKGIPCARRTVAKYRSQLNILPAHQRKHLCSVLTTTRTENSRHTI

[3] = target: T3, σ^66 (C. trachomatis primary sigma factor), BACTH fusion (Chlamydia trachomatis) (UniProt P18333); test: as above
T3 sequence: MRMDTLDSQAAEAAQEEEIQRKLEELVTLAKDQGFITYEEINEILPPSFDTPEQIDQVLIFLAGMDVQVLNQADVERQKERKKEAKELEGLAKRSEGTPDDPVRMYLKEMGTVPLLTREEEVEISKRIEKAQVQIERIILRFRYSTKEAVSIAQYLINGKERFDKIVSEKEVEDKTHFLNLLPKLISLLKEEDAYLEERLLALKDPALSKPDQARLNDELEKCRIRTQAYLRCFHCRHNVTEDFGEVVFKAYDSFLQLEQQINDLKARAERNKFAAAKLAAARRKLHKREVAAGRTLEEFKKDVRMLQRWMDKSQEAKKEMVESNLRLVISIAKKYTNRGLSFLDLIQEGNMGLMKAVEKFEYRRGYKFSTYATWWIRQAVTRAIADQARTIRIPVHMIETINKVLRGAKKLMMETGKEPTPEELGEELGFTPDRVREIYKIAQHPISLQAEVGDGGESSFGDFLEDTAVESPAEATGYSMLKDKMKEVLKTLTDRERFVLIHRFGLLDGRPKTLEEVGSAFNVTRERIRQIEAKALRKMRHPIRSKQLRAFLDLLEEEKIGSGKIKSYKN

[4] = target: T4, σ^B (B. subtilis sigma factor B), BACTH fusion (Bacillus subtilis) (UniProt P06574); test: as above
T4 sequence: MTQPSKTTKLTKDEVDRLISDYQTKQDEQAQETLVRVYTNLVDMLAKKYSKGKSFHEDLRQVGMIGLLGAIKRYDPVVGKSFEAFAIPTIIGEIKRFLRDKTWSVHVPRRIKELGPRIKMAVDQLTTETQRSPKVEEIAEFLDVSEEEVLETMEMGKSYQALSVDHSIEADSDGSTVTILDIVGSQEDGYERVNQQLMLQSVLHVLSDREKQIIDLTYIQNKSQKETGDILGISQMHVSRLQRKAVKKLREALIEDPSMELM

[5] = target: T5, σ^28, recombinant purified, amine-coupled SPR ligand (Chlamydia trachomatis) (UniProt O84064); test: SPR; Biacore 3000, CM5 chip; σ66, σ28 and σ54 amine-coupled to consecutive flow cells, RsbWCt analyte at various concentrations; reference flow cell with immobilized GST; Req as percent of theoretical Rmax; 10mM HEPES, 150mM NaCl, 1mM MgCl2, 30°C; both purified
T5 sequence: T1 sequence

[6] = target: T6, σ^54, recombinant purified, amine-coupled SPR ligand (Chlamydia trachomatis) (UniProt O84615); test: as above
T6 sequence: T2 sequence

B1: RsbWCt (C. trachomatis switch-protein kinase analogue RsbW), BACTH fusion (protein, UniProt O84553 1-146)
chain: MTFSEGEQVFPATLQDLYPMLDFVKRAGVHCNCTQKKLSKLELACEELLLNIITHAYKGLPSTGWIRILCTETPDALLVRITDHGPAFNPITASPDIMRLDLPIEQRRIGGLGIFLAKYSVDVFDYERVNDTNVVTLTLYTKPHNS
In the case of B1, the binding [1] is reported as “no binding”, the binding [2] is reported as “no binding” and the binding [3] is reported as “binds”.

B2: RsbWBs (B. subtilis anti-sigma factor RsbW), BACTH fusion (protein, UniProt P17904 1-160)
chain: MKNNADYIEMKVPAQPEYVGIIRLTLSGVASRMGYTYDEIEDLKIAVSEACTNAVQHAYKEDKNGEVSIRFGVFEDRLEVIVADEGDSFDFDQKQQDLGPYTPSHTVDQLSEGGLGLYLMETLMDEVRVQNHSGVTVAMTKYLNGERVDHDTTIKNYETN
With B2 the binding [4] was “binds”.

B3: RsbTBs (B. subtilis RsbT, paralogue of RsbWBs), BACTH fusion (protein, UniProt P42411 1-133)
chain: MNDQSCVRIMTEWDIVAARQLGRNVAKELGFGTVDQARITTAISELARNIYLYAGKGQIGIEQVADRGKKGLKIIAEDQGPGIPDIRKVMEDGFSTSGGLGAGLPGVKRLMDEFSLNSVAGEGTEIQAIKWLR
For B3, the binding [4] was “no binding”.

B4: RsbWCt, recombinant purified (SPR analyte) (natural protein, Chlamydia trachomatis, UniProt O84553 1-146, looked up)
chain: B1 chain
notes: RsbW of Chlamydia trachomatis, cloned from serovar D/UW/CX genomic DNA; also called CT549; source: PC2 E. coli, pGEX-derived vector, purified
In the case of B4, the binding [5] is reported as “no binding” and the binding [6] is reported as “no binding”.
